Screen size: about 310,000 compounds; about 14,000 (4.5%) showed an effect of 50% or more. Effects have a minus sign here. The list shows a part of the results.
molecular target: human ether-à-go-go-related gene (hERG) potassium channel (human, UniProt Q12809); assay: primary screen, population patch clamp on CHO cells stably expressing hERG
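Further: peak tail current of the secondary pulse compared with the same well before compound.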

Chain of human ether-à-go-go-related gene (hERG) potassium channel (Q12809 whole entry, looked up): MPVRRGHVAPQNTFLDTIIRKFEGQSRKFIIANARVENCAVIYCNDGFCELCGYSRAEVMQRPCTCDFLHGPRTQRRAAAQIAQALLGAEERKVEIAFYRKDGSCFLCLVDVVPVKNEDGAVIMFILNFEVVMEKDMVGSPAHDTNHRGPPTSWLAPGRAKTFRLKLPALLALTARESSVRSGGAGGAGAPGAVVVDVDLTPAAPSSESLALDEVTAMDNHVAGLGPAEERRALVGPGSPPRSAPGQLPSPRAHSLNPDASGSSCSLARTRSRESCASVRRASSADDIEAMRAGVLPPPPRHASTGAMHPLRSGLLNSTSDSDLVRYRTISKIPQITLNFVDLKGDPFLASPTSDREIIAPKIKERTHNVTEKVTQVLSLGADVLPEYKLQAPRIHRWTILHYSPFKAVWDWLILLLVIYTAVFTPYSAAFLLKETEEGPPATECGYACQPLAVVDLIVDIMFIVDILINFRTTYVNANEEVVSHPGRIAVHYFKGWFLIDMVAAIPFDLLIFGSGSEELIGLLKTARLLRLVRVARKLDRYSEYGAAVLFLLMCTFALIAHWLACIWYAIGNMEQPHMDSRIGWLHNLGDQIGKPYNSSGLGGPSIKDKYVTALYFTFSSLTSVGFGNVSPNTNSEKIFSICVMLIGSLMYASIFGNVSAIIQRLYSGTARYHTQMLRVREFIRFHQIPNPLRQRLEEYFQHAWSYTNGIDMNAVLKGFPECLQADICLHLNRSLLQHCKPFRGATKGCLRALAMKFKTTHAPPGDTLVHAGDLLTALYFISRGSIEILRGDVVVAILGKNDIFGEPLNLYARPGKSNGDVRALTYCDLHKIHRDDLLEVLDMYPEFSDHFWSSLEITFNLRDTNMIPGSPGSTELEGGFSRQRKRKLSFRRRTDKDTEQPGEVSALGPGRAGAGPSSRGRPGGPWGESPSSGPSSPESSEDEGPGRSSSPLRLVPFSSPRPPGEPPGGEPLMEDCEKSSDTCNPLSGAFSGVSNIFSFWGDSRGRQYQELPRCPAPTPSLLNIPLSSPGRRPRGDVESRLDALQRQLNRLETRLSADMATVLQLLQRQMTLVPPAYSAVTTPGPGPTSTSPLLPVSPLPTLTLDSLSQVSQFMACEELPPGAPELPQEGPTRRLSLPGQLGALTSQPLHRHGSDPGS

Compound	hERG current change (%, negative = inhibition) at 10uM [%]
C=CCSc1nc2sc3c(c2c(=O)[nH]1)CC(C)(CC)OC3 (centres unmarked)	19
C/C(=N\NC(=O)C(N)=O)c1ccc(NC(=O)c2cccs2)cc1	23.1
CCOCCCNC(=O)c1[nH]c(C)c(C(C)=O)c1C	12.2
CCOC(=O)c1nnn(-c2nn3nnnc3c3ccccc23)c1C	-11.5
O=C(Cc1ccccc1)N1CCc2[nH]nc(-c3ccccc3)c2C1	-8.6
Cc1ccc(NC(=O)COC(=O)Cc2csc(-c3ccc(Cl)cc3)n2)cc1C	-18.3
COC(=O)[C@@H]1C[C@H]2CC[C@H](O)C[C@H]2N1Cc1ccc(C(F)(F)F)cc1	6.02
O=C(COC(=O)CCC(=O)c1ccc(F)cc1)Nc1ccc2[nH]c(=O)[nH]c2c1	-3.65
CC(=O)Nc1nnc(SCC(=O)Nc2ccc3c(c2)OCCO3)s1	13.3
O=c1c2ccccc2n2c(-c3ccc(C(F)(F)F)cc3)nnc2n1Cc1ccccc1	0.707
CCOC(=O)n1c(=O)n(Cc2cccc(C)c2)c2ccccc21	-14
O=C(CCn1c(=O)c2ccccc2n(Cc2ccccc2)c1=O)NCc1ccc2c(c1)OCO2	-4.33
COc1cccc(/C=N/n2nnnc2N)c1OCc1ccccc1Cl	0.0246
CS(=O)(=O)N1CCN(C/C=C/c2ccccc2)CC1	7.98
CCOc1cc(/C=N/NC(=O)c2cccnc2)ccc1OC(=O)c1ccco1	25.4
O=C(Nc1ccc([N+](=O)[O-])cc1)c1ccc(S(=O)(=O)N2CCCC2)cc1	13
C=CCN1C(=O)SC(Cc2cccc(OC)c2O)C1=O (centres unmarked)	-2.93
Cc1ccc(S(=O)(=O)N(C)C)cc1NC(=O)C1CCCCN1S(=O)(=O)c1ccccc1 (centres unmarked)	-16.5
O=S(=O)(Nc1ccc2c(c1)nc1n2CCN(Cc2ccccc2)C1)c1ccc(F)cc1	-50.4
Cc1ccc(Nc2nnc(SCC3CCCCO3)s2)cc1 (centres unmarked)	-2.19
CCn1cc(C(=O)Nc2ccc3c(c2)OCCO3)c2cc(OC)c(OC)cc2c1=O	8.76
COc1cc(NC(=O)Cc2cccs2)c(C(=O)O)cc1OC	21.7

Compound	hERG current change (%, negative = inhibition) at 10uM [%]
CC1C(=O)Nc2ccccc2N1C(=O)c1ccc(Cl)c(Cl)c1 (centres unmarked)	6.39
CC(Oc1ccccc1)C(=O)Nc1nc(-c2ccncc2)cs1 (centres unmarked)	2.28
CCOC(=O)c1sc(Nc2nc3ccc(OC)cc3s2)cc1C	-0.84
CCOC(=O)C1C(=O)NCC1c1ccccc1 (centres unmarked)	7.58
Cc1nnc(SCC(=O)N2CCCCC2)n1CC1CCCO1 (centres unmarked)	4.4
O=C(CCc1nc(-c2ccccc2F)no1)NCCN1CCOCC1	6.22
CCCCN(C(=O)Oc1ccccc1)C1CCS(=O)(=O)C1 (centres unmarked)	-9.61
CCN(CC)c1ccc(C=Nc2ccccc2)c(O)c1	1.65
COc1ccc(CCNC(=O)CCS(=O)(=O)c2ccc(C)cc2)cc1OC	-15.2
CN(c1ccccc1)P(=O)(N(C)c1ccccc1)N(C)c1ccccc1	-37.1
O=C(Nc1ccccc1Cl)c1cccs1	-7.13
CCOc1cc(/C=N\NC(=O)CC(=O)NCCc2ccccc2)ccc1O	1.94
COc1ccc2occ(NC(C)=O)c2c1	-1.13
Cn1c(=O)n(CC(=O)N2CCOCC2)c2ccccc21	3.76
COc1cccc(/C=C(/C(=O)OCC(N)=O)c2ccccc2)c1	-21.8
O=C(Nc1ccc(F)cc1)c1ccccc1CC[N+](=O)[O-]	-0.239
O=C(NCc1ccc(F)cc1)C1CCCN(C(=O)NCc2ccccc2)C1 (centres unmarked)	-13
Cc1ncc(CC(=O)n2cc(C(=O)c3cc(Cl)ccc3O)cn2)s1	-23.2
CN1CCN(C(=O)C2(NC(=O)Nc3cccc(F)c3)CCCCC2)CC1	-17.9
CN(CC(=O)Nc1ccc(F)cc1)C(=O)CN1C(=O)c2ccccc2C1=O	-18
C/C(N)=C(/C#N)C(=O)CSc1nc2ccccc2c(=O)n1Cc1ccc(F)cc1	7.48
Cc1ccc(SC(C)c2nc(-c3ccccc3)no2)cc1 (centres unmarked)	5.66

— publication PMC4336329 (PLoS ONE, 2015)
